The other results are listed elsewhere or left out. The full chains were built here from the parent and the listed change. Values near 0.05 are background.
B1: TEV protease; numbered along this chain (parent)
chain: MGESLFKGPRDYNPISSSICHLTNESDGHTTSLYGIGFGPFIITNKHLFRRNNGTLVVQSLHGVFKVKDTTTLQQHLVDGRDMIIIRMPKDFPPFPQKLKFREPQREERICLVTTNFQTKSMSSMVSDTSCTFPSGDGIFWKHWIQTKDGQCGSPLVSTRDGFIVGIHSASNFTNTNNYFTSVPKNFMELLTNQEAQQWVSGWRLNADSVLWGGHKVFMVKPEEPFQPVKEATQL

Variants of: B1
Assay: raw area under fraction-flipped curve 0-4 h after induction (AUC4h, not background-subtracted), DNA-recorder readout of cleavage of the substrate (dimensionless); higher = more cleavage of the substrate by the protease variant
Details: temperature: 34 °C; time window: 0-4 h after rhamnose induction
Protocol: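 In vivo DNA recorder in E. coli TOP10(DE3) ΔrhaA at 34 °C. Each TEVp single-site mutant (parent TEVp 0) is paired with a single-site variant of the 7-mer TEVs (canonical ENLYFQ|S). The substrate sits between flexible linkers in a Bxb1-sfGFP-TEVs-SsrA fusion, so cleavage stabilises Bxb1 and speeds flipping of a recombination array, read by NGS. The value is the raw area under the fraction-flipped curve over 0-4 h after rhamnose induction (AUC4h), with ≥20 reads per time point. It is not background-subtracted; inactive controls average about 0.047.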
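Also: Bxb1 expression induced with 0.2% (w/v) L-rhamnose at OD600 near 0.5, cultures sampled hourly, flipped fraction per protease–substrate barcode pair counted by paired-end Illumina sequencing.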

Row | Variant | area with substrate ENLYFAS | area with substrate ENLYFCS | area with substrate ENLYFES | area with substrate ENLYFFS | area with substrate ENLYFGS | area with substrate ENLYFHS | area with substrate ENLYFIS | area with substrate ENLYFKS | area with substrate ENLYFMS | area with substrate ENLYFNS | area with substrate ENLYFPS | area with substrate ENLYFSS | area with substrate ENLYFTS | area with substrate ENLYFWS | area with substrate ENLYFYS | area with substrate ENLYFDS | area with substrate ENLYFLS | area with substrate ENLYFRS | area with substrate ENLYFVS
1 | S18N | 0.0565 | 0.0609 | 0.0706 | 0.0873 | 0.0353 | 0.0653 | 0.0547 | 0.0569 | 0.0776 | 0.07 | 0.0543 | 0.0481 | 0.0632 | 0.0535 | 0.0525 | – | – | – | –
2 | H47G | 0.0715 | 0.0487 | 0.052 | 0.0674 | 0.0454 | 0.0598 | 0.0587 | 0.0599 | 0.0567 | 0.0542 | 0.0594 | 0.0562 | 0.0586 | 0.0641 | 0.0528 | 0.0625 | 0.0715 | 0.0582 | 0.053
3 | N13C | 0.0658 | 0.0622 | 0.0625 | 0.0649 | 0.067 | 0.067 | 0.0592 | 0.0556 | 0.0571 | 0.0632 | 0.0559 | 0.0635 | 0.0829 | 0.0608 | 0.0575 | – | 0.0532 | 0.0537 | 0.0474
4 | N13Q | 0.0674 | 0.0633 | 0.0545 | 0.0487 | – | 0.0656 | 0.0518 | 0.0602 | 0.0642 | – | 0.0613 | – | 0.0612 | 0.0553 | – | 0.0704 | 0.0522 | 0.0622 | 0.0518
5 | V200C | 0.0544 | 0.0722 | 0.0585 | 0.0627 | 0.0612 | – | 0.0585 | 0.0628 | – | 0.0619 | 0.0641 | – | 0.0538 | 0.0586 | 0.0669 | 0.0717 | – | 0.0459 | 0.0648
6 | V200Y | 0.0931 | 0.051 | 0.038 | 0.0679 | – | 0.0779 | 0.0588 | 0.0659 | 0.0521 | – | 0.0549 | – | – | 0.0438 | 0.0443 | – | – | – | –
7 | F65A | 0.0628 | 0.0543 | 0.0606 | 0.0504 | 0.0523 | – | 0.048 | 0.0687 | 0.0724 | 0.0545 | 0.0487 | 0.0556 | 0.0685 | 0.0656 | 0.0474 | 0.0646 | – | 0.0525 | 0.0536
8 | S17C | 0.0607 | 0.0682 | 0.0634 | 0.0692 | 0.0577 | 0.0581 | 0.0601 | – | 0.0607 | 0.0724 | 0.067 | 0.0616 | 0.0493 | 0.0644 | 0.0545 | 0.0717 | – | 0.0518 | 0.0551
9 | F117L | 0.0634 | 0.0585 | 0.0693 | – | – | – | 0.0675 | – | – | – | 0.068 | – | – | 0.053 | 0.0491 | – | – | 0.0536 | 0.0613
10 | C152T | 0.0697 | 0.0581 | 0.047 | 0.0677 | 0.081 | 0.0652 | 0.0704 | – | 0.0432 | – | 0.058 | 0.107 | 0.058 | – | – | – | 0.0555 | – | –
11 | K216V | 0.0582 | 0.0657 | – | 0.0606 | – | – | – | 0.086 | – | 0.0605 | 0.0574 | – | – | 0.0599 | – | – | 0.0567 | – | 0.0289
12 | K216T | 0.0406 | 0.0541 | 0.0656 | 0.0642 | 0.0595 | 0.0544 | 0.0566 | 0.0671 | 0.0655 | 0.0651 | 0.0695 | – | 0.0603 | – | – | 0.0622 | – | – | 0.0577
13 | K216C | 0.056 | – | – | 0.0718 | – | – | 0.0517 | 0.0566 | – | – | – | 0.0404 | 0.0709 | 0.0809 | – | 0.0547 | – | – | –
